Assay results published in the supplement of paper PMC12217912.
The other results are listed elsewhere or left out. The full chains were built here from the parent and the listed change. Values near 0.05 are background.

B1: TEV protease; numbered along this chain (parent)
chain: MGESLFKGPRDYNPISSSICHLTNESDGHTTSLYGIGFGPFIITNKHLFRRNNGTLVVQSLHGVFKVKDTTTLQQHLVDGRDMIIIRMPKDFPPFPQKLKFREPQREERICLVTTNFQTKSMSSMVSDTSCTFPSGDGIFWKHWIQTKDGQCGSPLVSTRDGFIVGIHSASNFTNTNNYFTSVPKNFMELLTNQEAQQWVSGWRLNADSVLWGGHKVFMVKPEEPFQPVKEATQL

Variants of: B1
Assay: raw area under fraction-flipped curve 0-4 h after induction (AUC4h, not background-subtracted), DNA-recorder readout of cleavage of the substrate (dimensionless); higher = more cleavage of the substrate by the protease variant
Settings: temperature: 34 °C; time window: 0-4 h after rhamnose induction
Protocol: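 In vivo DNA recorder in E. coli TOP10(DE3) ΔrhaA at 34 °C. Each TEVp single-site mutant (parent TEVp 0) is paired with a single-site variant of the 7-mer TEVs (canonical ENLYFQ|S). The substrate sits between flexible linkers in a Bxb1-sfGFP-TEVs-SsrA fusion, so cleavage stabilises Bxb1 and speeds flipping of a recombination array, read by NGS. The value is the raw area under the fraction-flipped curve over 0-4 h after rhamnose induction (AUC4h), with ≥20 reads per time point. It is not background-subtracted; inactive controls average about 0.047.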
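Further: Bxb1 expression induced with 0.2% (w/v) L-rhamnose at OD600 near 0.5, cultures sampled hourly, flipped fraction per protease–substrate barcode pair counted by paired-end Illumina sequencing.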

Variant | area with substrate ENAYFQS | area with substrate ENCYFQS | area with substrate ENDYFQS | area with substrate ENFYFQS | area with substrate ENGYFQS | area with substrate ENHYFQS | area with substrate ENIYFQS | area with substrate ENMYFQS | area with substrate ENNYFQS | area with substrate ENPYFQS | area with substrate ENQYFQS | area with substrate ENRYFQS | area with substrate ENSYFQS | area with substrate ENTYFQS | area with substrate ENVYFQS | area with substrate ENWYFQS | area with substrate ENEYFQS | area with substrate ENKYFQS | area with substrate ENYYFQS
V220G | 0.0446 | 0.0703 | 0.0563 | 0.0694 | 0.0313 | 0.0624 | 0.119 | 0.0889 | 0.0593 | 0.0909 | 0.0594 | 0.0563 | 0.0633 | 0.0699 | 0.0826 | 0.0406 | – | – | –
V220E | 0.0591 | 0.072 | – | – | 0.0731 | 0.0667 | – | – | 0.0727 | 0.0602 | 0.0516 | 0.0795 | 0.0617 | 0.0706 | 0.12 | – | 0.0603 | 0.0879 | 0.0553
F38K | – | 0.0594 | 0.0583 | 0.0503 | 0.0729 | – | – | 0.043 | 0.061 | – | 0.0487 | 0.052 | 0.0528 | – | 0.0516 | 0.0382 | 0.0512 | 0.0465 | –
V229E | 0.062 | 0.0829 | 0.0713 | 0.0686 | 0.0493 | – | – | – | 0.0677 | 0.0535 | 0.0614 | – | 0.0611 | 0.0655 | – | 0.0555 | 0.0615 | – | 0.0678
V229Q | 0.064 | 0.0746 | 0.0623 | – | 0.0516 | 0.0699 | – | 0.104 | 0.0516 | 0.0571 | 0.0669 | 0.0836 | 0.0728 | 0.0602 | 0.0901 | – | – | 0.0706 | –
Q227W | 0.0668 | 0.0451 | 0.0683 | – | 0.0649 | 0.0685 | – | – | 0.081 | – | 0.0646 | – | 0.0684 | 0.0537 | 0.0767 | 0.0402 | 0.0414 | 0.0732 | 0.0558
W212G | 0.0699 | 0.0596 | 0.0653 | – | – | 0.0527 | – | – | 0.0512 | 0.0551 | 0.0693 | – | – | 0.062 | – | 0.052 | 0.0796 | 0.0566 | –
E223Y | 0.06 | 0.0786 | 0.0634 | – | – | 0.0673 | 0.113 | 0.0615 | – | 0.0546 | 0.0629 | 0.0669 | 0.0552 | 0.0605 | 0.0647 | – | 0.0613 | 0.0694 | 0.0571
E223N | 0.0938 | 0.0597 | 0.0669 | 0.0749 | 0.0832 | 0.0487 | 0.0419 | 0.0807 | 0.0656 | – | 0.0568 | – | 0.067 | 0.0612 | 0.0706 | 0.009 | 0.061 | 0.0644 | –
T233E | 0.0444 | – | 0.0466 | – | 0.0482 | – | 0.115 | 0.0798 | 0.068 | 0.0516 | 0.0631 | 0.0555 | 0.0573 | – | – | 0.0541 | 0.0558 | 0.0861 | –
T233M | 0.0546 | 0.0889 | 0.0498 | 0.0461 | 0.0658 | 0.0632 | 0.102 | 0.0641 | 0.0594 | 0.0627 | 0.0681 | 0.0654 | – | – | – | 0.058 | 0.068 | 0.0624 | –
T233Q | 0.0597 | – | 0.0644 | – | 0.0638 | – | 0.0983 | – | 0.0642 | – | 0.0573 | – | 0.0629 | 0.0677 | 0.0898 | – | – | – | 0.0708
